According to the supplement of paper PMC3334620:
In all, about 33,000 sequences were measured (“E-score (-0.5 to 0.5)”: median about -0.053, highest 2% from about 0.37 on). The list shows a part of the results.

Target: Hap1 (UniProt P0CE41)
Assay: PBM E-score (8-mer binding enrichment) (E-score (-0.5 to 0.5)); higher = stronger / more preferred TF binding; most listed sequences are background and not binding sites
Conditions: protein concentration: 200 nM; construct: GST-DNA-binding domain
In short: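 Full-length yeast transcription factors or their DNA-binding domains, GST-tagged and expressed with PURExpress, were applied at about 100-200 nM to universal all-10-mer Agilent arrays. These arrays had been made double-stranded by primer extension on fresh or once-stripped slides. Detection used fluorescent anti-GST, normalisation used masliner, and E-scores for ungapped eight-base words pooled with reverse complements came from the Universal PBM Analysis Suite.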

Sequence of UniProt P0CE41 (P0CE41 whole entry): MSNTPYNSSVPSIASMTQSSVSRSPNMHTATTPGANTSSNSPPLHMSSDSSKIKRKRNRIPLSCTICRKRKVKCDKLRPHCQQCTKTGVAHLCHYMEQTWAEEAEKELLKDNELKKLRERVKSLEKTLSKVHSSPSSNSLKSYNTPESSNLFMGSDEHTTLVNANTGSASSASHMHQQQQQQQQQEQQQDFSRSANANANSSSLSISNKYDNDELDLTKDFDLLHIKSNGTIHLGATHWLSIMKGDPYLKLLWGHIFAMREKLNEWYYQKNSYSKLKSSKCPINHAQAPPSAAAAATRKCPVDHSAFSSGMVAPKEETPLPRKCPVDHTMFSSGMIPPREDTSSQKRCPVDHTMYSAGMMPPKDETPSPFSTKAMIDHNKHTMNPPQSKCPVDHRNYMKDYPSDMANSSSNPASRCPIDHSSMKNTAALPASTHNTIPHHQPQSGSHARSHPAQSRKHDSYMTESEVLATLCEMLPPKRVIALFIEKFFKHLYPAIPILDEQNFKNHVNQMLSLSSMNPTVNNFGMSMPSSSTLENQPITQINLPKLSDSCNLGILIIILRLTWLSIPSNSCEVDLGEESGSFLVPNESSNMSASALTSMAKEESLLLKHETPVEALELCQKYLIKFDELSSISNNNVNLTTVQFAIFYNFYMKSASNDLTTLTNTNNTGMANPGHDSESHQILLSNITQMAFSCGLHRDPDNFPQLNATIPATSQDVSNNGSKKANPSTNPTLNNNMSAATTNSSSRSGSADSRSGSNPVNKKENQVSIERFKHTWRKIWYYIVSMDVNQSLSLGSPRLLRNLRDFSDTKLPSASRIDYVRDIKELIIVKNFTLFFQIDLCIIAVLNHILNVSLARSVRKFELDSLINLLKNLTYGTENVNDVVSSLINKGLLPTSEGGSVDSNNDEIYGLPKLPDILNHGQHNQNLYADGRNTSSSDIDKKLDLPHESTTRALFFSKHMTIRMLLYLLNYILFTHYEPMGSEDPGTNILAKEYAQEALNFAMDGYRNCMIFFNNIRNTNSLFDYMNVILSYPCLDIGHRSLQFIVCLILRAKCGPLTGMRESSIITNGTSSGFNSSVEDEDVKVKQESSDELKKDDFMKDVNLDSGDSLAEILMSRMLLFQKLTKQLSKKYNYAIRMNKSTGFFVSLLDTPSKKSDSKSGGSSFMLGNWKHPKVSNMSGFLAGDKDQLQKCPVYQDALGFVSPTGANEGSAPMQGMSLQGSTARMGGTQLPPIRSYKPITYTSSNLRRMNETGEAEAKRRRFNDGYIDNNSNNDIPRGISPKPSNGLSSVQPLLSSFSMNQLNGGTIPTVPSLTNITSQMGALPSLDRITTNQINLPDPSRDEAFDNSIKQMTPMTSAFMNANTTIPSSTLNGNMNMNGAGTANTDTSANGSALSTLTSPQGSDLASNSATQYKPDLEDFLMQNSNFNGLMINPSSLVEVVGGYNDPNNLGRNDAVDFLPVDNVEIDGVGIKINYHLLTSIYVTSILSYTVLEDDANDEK

| Sequence | PBM E-score |
| --- | --- |
| GCAGCTTA | -0.171 |
| CGCTATTC | 0.0696 |
| CAGCCGTC | 0.0371 |
| AATGCCTC | -0.116 |
| ATTGTATG | -0.0192 |
| TGTATACA | -0.0464 |
| GTGCATTA | -0.214 |
| GCAGCCTA | -0.226 |
| ATTTAAGC | 0.0261 |
| CGAATCCA | 0.0171 |
| TCCCTTCA | -0.318 |
| ACACCCAG | -0.131 |
| AATAAGGG | -0.24 |
| CTATCCAA | -0.155 |
| AACATCGG | 0.294 |
| CACATCGG | 0.224 |
| GGCACCTA | 0.0604 |
| AGCATCTA | -0.207 |
| AGAGAATA | 0.115 |
| AAACATTG | -0.0851 |
| AGTAATTC | 0.16 |
| AGTCGAGC | -0.26 |
| CATATGTA | -0.355 |
| GACGTAGC | -0.00077 |
| ACGCTACG | 0.021 |

| Sequence | PBM E-score |
| --- | --- |
| CTGTCCTC | -0.16 |
| ATAGAGCA | -0.17 |
| GTCAGGTA | -0.0611 |
| CGTAAACA | 0.163 |
| GTATGTGA | -0.131 |
| CTTCATTA | -0.257 |
| AGCTGACG | -0.113 |
| GGACCAAC | 0.142 |
| CGACATGA | 0.0551 |
| TAGCTTCA | -0.271 |
| CTACTTCC | 0.158 |
| TAGTGATA | -0.243 |
| CGAGGTAC | -0.113 |
| AAATGGGC | -0.0315 |
| ATATTCTA | -0.129 |
| GGAGATGA | 0.133 |
| CGCTACCA | 0.0305 |
| AAACGAAC | -0.13 |
| TACGAGCA | -0.124 |
| CAACACCA | -0.237 |
| GGTGATGA | -0.0753 |
| GGTCAACA | 0.034 |
| CATTTTGC | -0.00097 |
| CATCAACC | -0.0425 |
| AACCAGCG | 0.0362 |

| Sequence | PBM E-score |
| --- | --- |
| AGGGATAC | -0.181 |
| GTTGCTGA | -0.108 |
| CCTTTTCC | -0.0302 |
| ACAAACAC | 0.116 |
| AGCGCATG | -0.2 |
| CATTAGCG | 0.0582 |
| AGCAGAAA | -0.0575 |
| ATGCTCAG | -0.189 |
| AGAGATGA | -0.136 |
| CTCAATAC | 0.0506 |
| GTTCATGA | -0.0139 |
| ATGAAGCA | -0.161 |
| ACTTTGAC | -0.21 |
| GATTCCTA | 0.00704 |
| ACTAGAAA | -0.112 |
| AACCCAAC | -0.149 |
| TAGTCCCA | -0.284 |
| TGATCCAA | -0.104 |
| ATTGCGTA | -0.0376 |
| AAGTGGCC | 0.0773 |
| AAGTACTA | 0.0747 |
| AATGACGT | -0.0933 |
| CATCCGCG | 0.25 |
| ATAGCTAT | 0.0675 |
| CGTAATGA | -0.0241 |

| Sequence | PBM E-score |
| --- | --- |
| ATAAGGAT | -0.238 |
| ACAGCTTA | -0.264 |
| CTTGAAGA | -0.216 |
| ACTATACA | -0.124 |
| CGAGGGTA | 0.076 |
| TAATATGA | 0.0686 |
| CTCGAGAA | -0.235 |
| AGTAGTTA | -0.113 |
| GTAAAACA | -0.148 |
| AGTCGGAT | 0.361 |
| CGCTATGA | 0.099 |
| ATGCTAGG | -0.0899 |
| GCTGGTAA | -0.181 |
| CGGCATCA | 0.165 |
| AAGTCATT | -0.259 |
| CAATGAGC | 0.0272 |
| TATAAAAA | 0.142 |
| AGAGGTAG | -0.189 |
| CGGCGTCC | 0.231 |
| CGAGCCCA | -0.125 |
| AGTCGCCC | -0.0935 |
| ACCGCTAC | 0.237 |
| CGCAGATC | -0.0262 |
| CGACTACG | -0.0071 |
| CTGATACA | -0.0606 |

| Sequence | PBM E-score |
| --- | --- |
| AGCCACAC | -0.234 |
| AAACTCAT | 0.0468 |
| CGGCGCCG | 0.406 |
| TAAACTCA | 0.0254 |
| CGAGTCAA | -0.125 |
| CTAGACTC | -0.205 |
| ATGCATGA | -0.109 |
| AAGCCTAA | -0.0872 |
| ATACCGTC | 0.0985 |
| CATGAGCA | -0.107 |
| AAGTCTCC | 0.0283 |
| CAATTGTG | -0.155 |
| TGCGTGAA | 0.037 |
| CGAAACAG | 0.0239 |
| AGGTGCAT | -0.171 |
| CAGCTGTC | -0.0919 |
| GCTACCAC | -0.252 |
| AACACCGA | 0.446 |
| AAGGGGTA | -0.2 |
| AACTCTCC | 0.0653 |
| AGACATGC | -0.256 |
| AGACCGTG | -0.0316 |
| ACGTGAGC | -0.104 |
| AGCTCGCC | 0.119 |
| GTCTTGCA | -0.136 |

| Sequence | PBM E-score |
| --- | --- |
| GCATCACA | -0.137 |
| GCATCGAA | -0.147 |
| AATCTACT | 0.0176 |
| GCCTACAC | -0.237 |
| ATTCGTGG | -0.109 |
| CTGCGGGA | 0.0153 |
| ACGCGTCA | -0.171 |
| GTCTGACA | -0.0876 |
| TAACATCA | -0.207 |
| ACCCAGGG | -0.183 |
| GAATCCGC | 0.179 |
| TAGGACGA | -0.164 |
| CCGACCGC | 0.181 |
| ACCTCGAT | -0.155 |
| AAGACAGG | -0.138 |
| GAGAGTCC | -0.0436 |
| CTTTATGA | -0.28 |
| AATTGTAG | -0.183 |
| CCGCGAAG | 0.17 |
| AAAAGCGG | 0.187 |
| AGTGTCCA | -0.179 |
| CGACGCCA | 0.0104 |
| AGAACTGC | -0.198 |
| GACAGTTA | 0.0585 |
| AGATCACG | -0.113 |

| Sequence | PBM E-score |
| --- | --- |
| TCCGCGAA | 0.292 |
| AAATAAAG | 0.00195 |
| AGCACAGG | -0.241 |
| CGACTAAA | -0.0734 |
| TCACTAAA | -0.16 |
| ATCACGAA | -0.258 |
| AGTAGGTC | -0.053 |
| AGGTCCCA | -0.174 |
| CCAGGTGC | 0.0224 |
| AGTAGGAA | -0.259 |
| CGGGGGAA | 0.354 |
| AGCTTAGG | -0.0706 |
| CCGGTCCA | 0.237 |
| ACCTAGAC | -0.158 |
| CAGGTCCG | 0.337 |
| CTAGTTCC | 0.234 |
| CTCCAAAC | -0.124 |
| CACGTTTA | -0.217 |
| CTCACCTA | -0.159 |
| GGTGTGCA | -0.286 |
| GTGAACCA | -0.193 |
| TACTCCTA | -0.354 |
